# Reference: paper PMC4336329 (PLoS ONE, 2015)
# The campaign covered roughly 310,000 compounds. About 2,200 (0.71%) showed an effect of 50% or more. Effects have a minus sign here. The list shows a part of the results.
# Target: human ether-à-go-go-related gene (hERG) potassium channel (human, UniProt Q12809)
# Assay: primary screen, population patch clamp on CHO cells stably expressing hERG
# Chain of human ether-à-go-go-related gene (hERG) potassium channel (Q12809 whole entry, looked up): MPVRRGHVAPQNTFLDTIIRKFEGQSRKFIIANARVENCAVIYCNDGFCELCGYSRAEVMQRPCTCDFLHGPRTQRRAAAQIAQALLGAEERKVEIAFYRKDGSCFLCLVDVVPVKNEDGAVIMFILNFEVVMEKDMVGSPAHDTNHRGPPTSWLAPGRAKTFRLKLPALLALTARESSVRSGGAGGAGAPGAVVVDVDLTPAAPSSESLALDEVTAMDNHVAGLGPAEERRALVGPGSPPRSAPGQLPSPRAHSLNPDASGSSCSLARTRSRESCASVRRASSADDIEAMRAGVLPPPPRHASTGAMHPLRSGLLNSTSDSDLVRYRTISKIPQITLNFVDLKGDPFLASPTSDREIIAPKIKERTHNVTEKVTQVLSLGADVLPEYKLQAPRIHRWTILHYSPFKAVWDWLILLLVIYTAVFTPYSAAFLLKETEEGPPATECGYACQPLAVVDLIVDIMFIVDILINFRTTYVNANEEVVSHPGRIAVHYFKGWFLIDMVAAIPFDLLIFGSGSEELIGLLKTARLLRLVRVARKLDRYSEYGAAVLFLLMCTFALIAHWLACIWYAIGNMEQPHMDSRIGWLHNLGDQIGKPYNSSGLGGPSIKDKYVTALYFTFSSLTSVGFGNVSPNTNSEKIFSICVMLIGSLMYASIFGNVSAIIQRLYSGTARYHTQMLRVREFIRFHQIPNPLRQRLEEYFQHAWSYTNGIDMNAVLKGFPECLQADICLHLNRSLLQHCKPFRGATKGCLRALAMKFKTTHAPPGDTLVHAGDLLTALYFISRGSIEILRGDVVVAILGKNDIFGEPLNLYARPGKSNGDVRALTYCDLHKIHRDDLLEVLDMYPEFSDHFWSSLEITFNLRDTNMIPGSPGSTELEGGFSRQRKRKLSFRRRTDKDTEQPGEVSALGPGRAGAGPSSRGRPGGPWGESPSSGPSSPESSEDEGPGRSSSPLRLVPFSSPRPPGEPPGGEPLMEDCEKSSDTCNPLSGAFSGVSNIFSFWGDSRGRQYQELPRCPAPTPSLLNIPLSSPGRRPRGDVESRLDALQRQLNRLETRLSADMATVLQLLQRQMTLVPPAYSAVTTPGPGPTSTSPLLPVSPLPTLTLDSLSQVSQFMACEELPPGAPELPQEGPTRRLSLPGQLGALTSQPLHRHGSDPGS
row,SMILES,"hERG current change (%, negative = inhibition) at 1uM [%]"
1,CCN(CC(=O)Nc1c(F)cccc1F)C(=O)c1ccc(=O)[nH]c1,12.6
2,COc1ccc(NC(=O)C2=C(C)Nc3nc(CCCO)nn3C2c2ccc(OC)c(OC)c2)cc1 (stereo not shown),14.7
3,Cn1c(N)c(C(=O)COC(=O)C2CCCN2C(=O)c2cccs2)c(=O)n(C)c1=O (stereo not shown),9.65
4,CC(=O)c1c(COC(=O)c2cccnc2)nc2ccccc2[n+]1[O-],7.9
5,COC(=O)c1cccc(S(=O)(=O)N(Cc2ccco2)Cc2cc3ccc(OC)cc3[nH]c2=O)c1,10.7
6,O=C(O)CCC(=O)NCCC1=c2ccccc2=N/C1=C\c1c(O)n(Cc2ccc(F)cc2)c(=S)[nH]c1=O,12.2
7,CCOc1ccc(C(=O)Nc2c(C(N)=O)oc3ccccc23)cc1,16.1
8,O=C(CCc1c[nH]c2ccccc12)N/N=C/c1ccc2c(c1)OCO2,2.38
9,O=C(Nc1cc(C(=O)N2CCCC2)ccc1N1CCCC1)C1CC1,-1.85
10,COC(=O)NCc1cc2cc(Cl)ccc2[nH]1,-4.99
11,O=c1cc(Cc2ccccc2)[nH]c(=S)[nH]1,9.73
12,Cc1ccc(NC(=O)C2CCN(C(=O)c3ccccc3C)CC2)nc1,8.44
13,COc1ccc(-c2nc(-c3cccc(C(F)(F)F)c3)no2)cc1OC,7.94
14,CCCCn1c(N)c(N(CCOC)C(=O)c2cnc(C)cn2)c(=O)[nH]c1=O,1.79
15,Cc1cccc(C(=O)OCC(=O)NC2CCCCCCC2)c1,15.3
16,NS(=O)(=O)c1cccc(NC(=O)COC(=O)c2cc(-c3ccc(Cl)cc3)nc3ccccc23)c1,10.8
17,Cc1nc(C)c(-c2csc(NCc3ccccc3)n2)s1,3.64
18,CCCOc1ccc(/C=N/NC(=O)C2CC2)c(OCCC)c1,15
19,Cc1ccc2cc(CN(CCN(C)C)C(=S)Nc3ccccc3)c(=O)[nH]c2c1C,5.74
20,CCOc1ccc(C(CC(=O)O)n2cnnn2)cc1 (stereo not shown),3.56
21,CN1CCC(OC(=O)COc2ccc(Cl)cc2Cl)CC1.Cl,-3.11
22,CCCN1CCN(C(c2cc3cc(OCC)ccc3[nH]c2=O)c2nnnn2C2CCCCC2)CC1 (stereo not shown),-13.8
23,COc1cccc(N(CC(=O)NC2CCCC2)C(=O)CCC(=O)Nc2cc(C)on2)c1,3.51
24,CC1=NN(C(=O)c2ccccc2-n2cccc2)C(O)(C(F)(F)F)C1 (stereo not shown),20
25,CN1C(=O)c2ccccc2C(C(=O)O)C1c1cccc(F)c1 (stereo not shown),6.04
26,C[C@H]1C[C@H]2[C@@H]3CCC4=CC(=O)C=C[C@]4(C)[C@@]3(Cl)[C@@H](O)C[C@]2(C)[C@@]1(O)C(=O)CO,4.71
27,O=[N+]([O-])c1ccc(S(=O)(=O)Nc2ncccn2)cc1,16
28,CCN1CCN(C(c2cccs2)C(C)NC(=O)c2ccccc2OC)CC1 (stereo not shown),-6.8

row,SMILES,"hERG current change (%, negative = inhibition) at 1uM [%]"
1,COc1ccc(C(=O)N/N=C/c2c(C)nn(-c3ccccc3)c2OC)cc1,-2.56
2,O=C(CSc1cn[nH]n1)Nc1nc2ccccc2s1,6.74
3,Brc1ccccc1-c1nc(-c2ccccc2)no1,1.81
4,O=C(O)CCC(=O)Nc1cccc(-c2nnc(-c3ccccc3)o2)c1,16.6
5,CCOCCN1CCN(c2c(CC)c(C)nc3cc(-c4cc(OC)cc(OC)c4)nn23)CC1,-14
6,O=C(c1ccc(CS(=O)(=O)Cc2ccc(Cl)cc2)o1)N1CCCC1,-6.4
7,Cc1ccc(OC(=S)Nc2ccc(F)cc2)cc1,4.09
8,CCCSc1nnc(NC(=O)Cc2ccc(OC)c(OC)c2)s1,10.4
9,Cc1ccc(N=Nc2[nH]c3ccccc3c2O)cc1,8.3
10,Cc1cc(NC(=O)CSc2nnc(-c3cccc(F)c3)n2N)no1,9.45
11,CCN(CC)CCSc1nnc2c3cc(F)ccc3n(Cc3ccccc3)c2n1,-53.8
12,COC(=O)C1CCN(C(=O)c2ccc(Cl)c(S(=O)(=O)NCc3cccnc3)c2)CC1,17.9
13,Cc1cccc2c(C(=O)N3CCN(C(=O)c4ccco4)CC3)cc(-c3cccc(Br)c3)nc12,4.98
14,CC(Sc1cccc[n+]1[O-])C(=O)Nc1ccc(Oc2ccccc2)cc1 (stereo not shown),7.8
15,COc1ccc(-c2cc(=O)oc3c(C)c(OC(C)C(=O)N4C[C@H]5C[C@@H](C4)c4cccc(=O)n4C5)ccc23)cc1 (stereo partly shown),-19.7
16,CCn1c(SCC(=O)N2CCCC2)nc2ccccc21,6.29
17,CCc1ccc(OCC(=O)NC(=S)Nc2ccc(C(C)=O)cc2)c(Br)c1,6.13
18,CC1(C)COC(c2cccn2Cc2ccc(F)cc2Cl)=N1,15.9
19,CCN(C(=O)COC(=O)c1ccccc1SCC(=O)N1CCCC1)C1CCS(=O)(=O)C1 (stereo not shown),12.6
20,CCN(C(=O)COC(=O)c1nc2nc(C)cc(C)n2n1)C1CCS(=O)(=O)C1 (stereo not shown),11.2
21,CCc1ccccc1NC(=O)N1CCC(NC(=O)C(Cc2ccccc2)NC(C)=O)CC1 (stereo not shown),3.95
22,COC(=O)C1=CN(c2ccc(OC)cc2)C=C(C(=O)OC)C1c1cc(OC)c(OC)cc1OC,1.36
23,CN(C)c1nc(-c2ccccn2)nnc1-c1ccccc1,11.9
24,COc1ccccc1C1NC(=O)CCC1[N+](=O)[O-] (stereo not shown),14.4
25,Cc1ccc2cccc(NC(=S)NC(=O)c3ccccc3)c2n1,9.05
26,COC(=O)C1CC23C=CCN4CCC5(c6ccccc6NC15C2C)C43 (stereo not shown),9.38
27,Cc1cc(NC(=O)CN2CCCCCCC2)no1.O=C(O)C(=O)O,4.68
